{"source": "the supplement of paper PMC8728848", "binders": {"B1": {"name": "LSL-150 (Laetiporus sulphureus), Q7Z8V1 (protein)", "chain": "MTDIYIPPEGLYFRLLGFASRQVIFARNSPSPDVGLSPVNDQATDQYFSLIYGTGEHAGLYAIKSKATGKVLFSRRPAEPYVGQIDGDGRYPDNWFKIEPGKTYLSKYFRLVQPSTGTALVSRTHLQPYFWNHPQTEVFDDQYFTFLFEDHHHHHH"}}, "assay_in_all_cases": "glycan array binding signal (z-score within array); higher = stronger binding", "conditions_in_all_cases": "glycan notation: IUPAC condensed, linker removed", "key": {"Gal(a1-6)Glc": {"target": "Gal(a1-6)Glc", "how_it_was_run": "(§1)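 The binding signal is a Z-score computed within each array and averaged over linkers. Arrays of the same protein sequence at different concentrations or buffers were also averaged together. Data originate from 3228 arrays in the Consortium for Functional Glycomics database, kept only where the protein sequence was available.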"}, "Gal(b1-2)Gal": {"target": "Gal(b1-2)Gal", "how_it_was_run": "as §1"}, "Gal(b1-3)Gal": {"target": "Gal(b1-3)Gal", "how_it_was_run": "as §1"}, "Gal(b1-3)Gal(b1-4)GlcNAc": {"target": "Gal(b1-3)Gal(b1-4)GlcNAc", "how_it_was_run": "as §1"}, "Gal(b1-3)GalNAc": {"target": "Gal(b1-3)GalNAc", "how_it_was_run": "as §1"}, "[1]": {"target": "Gal(b1-3)GalNAc(a1-3)[Fuc(a1-2)]Gal(b1-4)Glc", "how_it_was_run": "as §1"}, "[2]": {"target": "Gal(b1-3)GalNAc(a1-3)[Fuc(a1-2)]Gal(b1-4)GlcNAc", "how_it_was_run": "as §1"}, "Gal(b1-3)GalNAc(b1-3)Gal": {"target": "Gal(b1-3)GalNAc(b1-3)Gal", "how_it_was_run": "as §1"}, "[3]": {"target": "Gal(b1-3)GalNAc(b1-3)Gal(a1-4)Gal(b1-4)Glc", "how_it_was_run": "as §1"}, "[4]": {"target": "Gal(b1-3)GalNAc(b1-4)Gal(b1-4)Glc", "how_it_was_run": "as §1"}, "[5]": {"target": "Gal(b1-3)GalNAc(b1-4)[Neu5Ac(a2-3)]Gal(b1-4)Glc", "how_it_was_run": "as §1"}, "Gal(b1-3)GlcNAc": {"target": "Gal(b1-3)GlcNAc", "how_it_was_run": "as §1"}, "[6]": {"target": "Gal(b1-3)GlcNAc(a1-3)Gal(b1-4)GlcNAc", "how_it_was_run": "as §1"}, "[7]": {"target": "Gal(b1-3)GlcNAc(a1-6)Gal(b1-4)GlcNAc", "how_it_was_run": "as §1"}, "Gal(b1-3)GlcNAc(b1-2)Man": {"target": "Gal(b1-3)GlcNAc(b1-2)Man", "how_it_was_run": "as §1"}, "[8]": {"target": "Gal(b1-3)GlcNAc(b1-2)Man(a1-3)[Gal(b1-3)GlcNAc(b1-2)Man(a1-6)]Man(b1-4)GlcNAc(b1-4)GlcNAc", "how_it_was_run": "as §1"}, "[9]": {"target": "Gal(b1-3)GlcNAc(b1-2)Man(a1-3)[Gal(b1-3)GlcNAc(b1-2)Man(a1-6)]Man(b1-4)GlcNAc(b1-4)[Fuc(a1-6)]GlcNAc", "how_it_was_run": "as §1"}, "[10]": {"target": "Gal(b1-3)GlcNAc(b1-2)Man(a1-3)[GlcNAc(b1-4)][Gal(b1-3)GlcNAc(b1-2)Man(a1-6)]Man(b1-4)GlcNAc(b1-4)GlcNAc", "how_it_was_run": "as §1"}, "[11]": {"target": "Gal(b1-3)GlcNAc(b1-2)[Gal(b1-3)GlcNAc(b1-6)]Man(a1-6)[Gal(b1-3)GlcNAc(b1-2)Man(a1-3)]Man(b1-4)GlcNAc(b1-4)GlcNAc", "how_it_was_run": "as §1"}, "[12]": {"target": "Gal(b1-3)GlcNAc(b1-3)Gal(b1-3)GlcNAc", "how_it_was_run": "as §1"}, "[13]": {"target": "Gal(b1-3)GlcNAc(b1-3)Gal(b1-4)Glc", "how_it_was_run": "as §1"}, "[14]": {"target": "Gal(b1-3)GlcNAc(b1-3)Gal(b1-4)GlcNAc", "how_it_was_run": "as §1"}, "[15]": {"target": "Gal(b1-3)GlcNAc(b1-3)Gal(b1-4)GlcNAc(b1-2)Man(a1-3)[Gal(b1-3)GlcNAc(b1-3)Gal(b1-4)GlcNAc(b1-2)Man(a1-6)]Man(b1-4)GlcNAc(b1-4)GlcNAc", "how_it_was_run": "as §1"}, "[16]": {"target": "Gal(b1-3)GlcNAc(b1-3)Gal(b1-4)GlcNAc(b1-2)[Gal(b1-3)GlcNAc(b1-3)Gal(b1-4)GlcNAc(b1-6)]Man(a1-6)[Gal(b1-3)GlcNAc(b1-3)Gal(b1-4)GlcNAc(b1-2)Man(a1-3)]Man(b1-4)GlcNAc(b1-4)[Fuc(a1-6)]GlcNAc", "how_it_was_run": "as §1"}, "[17]": {"target": "Gal(b1-3)GlcNAc(b1-3)Gal(b1-4)GlcNAc(b1-3)Gal(b1-4)GlcNAc(b1-2)[Gal(b1-3)GlcNAc(b1-3)Gal(b1-4)GlcNAc(b1-3)Gal(b1-4)GlcNAc(b1-6)]Man(a1-6)[Gal(b1-3)GlcNAc(b1-3)Gal(b1-4)GlcNAc(b1-3)Gal(b1-4)GlcNAc(b1-2)Man(a1-3)]Man(b1-4)GlcNAc(b1-4)[Fuc(a1-6)]GlcNAc", "how_it_was_run": "as §1"}, "[18]": {"target": "Gal(b1-3)GlcNAc(b1-3)Gal(b1-4)GlcNAc(b1-6)[Gal(b1-3)GlcNAc(b1-3)]Gal(b1-4)Glc", "how_it_was_run": "as §1"}, "[19]": {"target": "Gal(b1-3)GlcNAc(b1-3)Gal(b1-4)[Fuc(a1-3)]GlcNAc", "how_it_was_run": "as §1"}, "[20]": {"target": "Gal(b1-3)GlcNAc(b1-3)Gal(b1-4)[Fuc(a1-3)]GlcNAc(b1-6)[Gal(b1-3)GlcNAc(b1-3)]Gal(b1-4)Glc", "how_it_was_run": "as §1"}, "[21]": {"target": "Gal(b1-3)GlcNAc(b1-3)GalNAc", "how_it_was_run": "as §1"}, "[22]": {"target": "Gal(b1-3)GlcNAc(b1-6)Gal(b1-4)GlcNAc", "how_it_was_run": "as §1"}, "[23]": {"target": "Gal(b1-3)GlcNAc(b1-6)GalNAc", "how_it_was_run": "as §1"}, "[24]": {"target": "Gal(b1-3)GlcNAc(b1-6)[Gal(b1-3)]GalNAc", "how_it_was_run": "as §1"}, "Gal(b1-3)GlcNAc6S": {"target": "Gal(b1-3)GlcNAc6S", "how_it_was_run": "as §1"}, "[25]": {"target": "Gal(b1-3)[Fuc(a1-4)]GlcNAc", "how_it_was_run": "as §1"}, "[26]": {"target": "Gal(b1-3)[Fuc(a1-4)]GlcNAc(b1-2)Man", "how_it_was_run": "as §1"}, "[27]": {"target": "Gal(b1-3)[Fuc(a1-4)]GlcNAc(b1-2)Man(a1-3)[Gal(b1-3)[Fuc(a1-4)]GlcNAc(b1-2)Man(a1-6)]Man(b1-4)GlcNAc(b1-4)[Fuc(a1-6)]GlcNAc", "how_it_was_run": "as §1"}, "[28]": {"target": "Gal(b1-3)[Fuc(a1-4)]GlcNAc(b1-3)Gal(b1-3)[Fuc(a1-4)]GlcNAc", "how_it_was_run": "as §1"}, "[29]": {"target": "Gal(b1-3)[Fuc(a1-4)]GlcNAc(b1-3)Gal(b1-4)[Fuc(a1-3)]GlcNAc", "how_it_was_run": "as §1"}, "[30]": {"target": "Gal(b1-3)[Fuc(a1-4)]GlcNAc(b1-6)GalNAc", "how_it_was_run": "as §1"}, "[31]": {"target": "Gal(b1-3)[GlcNAc(b1-6)]GalNAc", "how_it_was_run": "as §1"}, "[32]": {"target": "Gal(b1-3)[Neu5Ac(a2-6)]GalNAc", "how_it_was_run": "as §1"}, "[33]": {"target": "Gal(b1-3)[Neu5Ac(a2-6)]GlcNAc(b1-4)Gal(b1-4)Glc", "how_it_was_run": "as §1"}, "[34]": {"target": "Gal(b1-3)[Neu5Ac(b2-6)]GalNAc", "how_it_was_run": "as §1"}, "Gal(b1-4)Gal": {"target": "Gal(b1-4)Gal", "how_it_was_run": "as §1"}, "[35]": {"target": "Gal(b1-4)GalNAc(a1-3)[Fuc(a1-2)]Gal(b1-4)GlcNAc", "how_it_was_run": "as §1"}}, "note": "Some of the results follow.", "data": [{"binder": "B1", "values": [{"measurement": "glycan array binding signal (z-score)", "setting": "Gal(a1-6)Glc", "result": -0.202}, {"measurement": "glycan array binding signal (z-score)", "setting": "Gal(b1-2)Gal", "result": -0.204}, {"measurement": "glycan array binding signal (z-score)", "setting": "Gal(b1-3)Gal", "result": -0.208}, {"measurement": "glycan array binding signal (z-score)", "setting": "Gal(b1-3)Gal(b1-4)GlcNAc", "result": -0.195}, {"measurement": "glycan array binding signal (z-score)", "setting": "Gal(b1-3)GalNAc", "result": -0.205}, {"measurement": "glycan array binding signal (z-score)", "setting": "[1]", "result": -0.207}, {"measurement": "glycan array binding signal (z-score)", "setting": "[2]", "result": -0.212}, {"measurement": "glycan array binding signal (z-score)", "setting": "Gal(b1-3)GalNAc(b1-3)Gal", "result": -0.21}, {"measurement": "glycan array binding signal (z-score)", "setting": "[3]", "result": -0.199}, {"measurement": "glycan array binding signal (z-score)", "setting": "[4]", "result": -0.208}, {"measurement": "glycan array binding signal (z-score)", "setting": "[5]", "result": -0.203}, {"measurement": "glycan array binding signal (z-score)", "setting": "Gal(b1-3)GlcNAc", "result": -0.205}, {"measurement": "glycan array binding signal (z-score)", "setting": "[6]", "result": -0.178}, {"measurement": "glycan array binding signal (z-score)", "setting": "[7]", "result": -0.203}, {"measurement": "glycan array binding signal (z-score)", "setting": "Gal(b1-3)GlcNAc(b1-2)Man", "result": -0.208}, {"measurement": "glycan array binding signal (z-score)", "setting": "[8]", "result": -0.199}, {"measurement": "glycan array binding signal (z-score)", "setting": "[9]", "result": -0.209}, {"measurement": "glycan array binding signal (z-score)", "setting": "[10]", "result": -0.205}, {"measurement": "glycan array binding signal (z-score)", "setting": "[11]", "result": -0.203}, {"measurement": "glycan array binding signal (z-score)", "setting": "[12]", "result": -0.203}, {"measurement": "glycan array binding signal (z-score)", "setting": "[13]", "result": -0.197}, {"measurement": "glycan array binding signal (z-score)", "setting": "[14]", "result": -0.124}, {"measurement": "glycan array binding signal (z-score)", "setting": "[15]", "result": 0.005}, {"measurement": "glycan array binding signal (z-score)", "setting": "[16]", "result": -0.046}, {"measurement": "glycan array binding signal (z-score)", "setting": "[17]", "result": 1.4}, {"measurement": "glycan array binding signal (z-score)", "setting": "[18]", "result": -0.029}, {"measurement": "glycan array binding signal (z-score)", "setting": "[19]", "result": -0.207}, {"measurement": "glycan array binding signal (z-score)", "setting": "[20]", "result": -0.209}, {"measurement": "glycan array binding signal (z-score)", "setting": "[21]", "result": -0.209}, {"measurement": "glycan array binding signal (z-score)", "setting": "[22]", "result": -0.205}, {"measurement": "glycan array binding signal (z-score)", "setting": "[23]", "result": -0.21}, {"measurement": "glycan array binding signal (z-score)", "setting": "[24]", "result": -0.204}, {"measurement": "glycan array binding signal (z-score)", "setting": "Gal(b1-3)GlcNAc6S", "result": -0.212}, {"measurement": "glycan array binding signal (z-score)", "setting": "[25]", "result": -0.208}, {"measurement": "glycan array binding signal (z-score)", "setting": "[26]", "result": -0.208}, {"measurement": "glycan array binding signal (z-score)", "setting": "[27]", "result": -0.209}, {"measurement": "glycan array binding signal (z-score)", "setting": "[28]", "result": -0.208}, {"measurement": "glycan array binding signal (z-score)", "setting": "[29]", "result": -0.202}, {"measurement": "glycan array binding signal (z-score)", "setting": "[30]", "result": -0.21}, {"measurement": "glycan array binding signal (z-score)", "setting": "[31]", "result": -0.194}, {"measurement": "glycan array binding signal (z-score)", "setting": "[32]", "result": -0.21}, {"measurement": "glycan array binding signal (z-score)", "setting": "[33]", "result": -0.215}, {"measurement": "glycan array binding signal (z-score)", "setting": "[34]", "result": -0.203}, {"measurement": "glycan array binding signal (z-score)", "setting": "Gal(b1-4)Gal", "result": -0.2}, {"measurement": "glycan array binding signal (z-score)", "setting": "[35]", "result": -0.214}]}]}
